# Laboratory results: a collection of fitness landscapes (doi:10.1126/science.1257360)
# The other results are listed elsewhere or left out.
# B1: PhoQ; a variant is named by its letters at X, in order, P23837 (parent)
# chain: MKKLLRLFFPLSLRVRFLLATAAVVLVLSLAYGMVALIGYSVSFDKTTFRLLRGESNLFYTLAKWENNKLHVELPENIDKQSPTMTLIYDENGQLLWAQRDVPWLMKMIQPDWLKSNGFHEIEADVNDTSLLLSGDHSIQQQLQEVREDDDDAEMTHSVAVNVYPATSRMPKLTIVVVDTIPVELKSSYMVWSWFIYVLSANLLLVIPLLWVAAWWSLRPIEALAKEVRELEEHNRELLNPATTRELTSLVRNLNRLLKSERERYDKYRTTLTDLTHSLKTPLXXLQXXLRSLRSEKMSVSDAEPVMLEQISRISQQIGYYLHRASMRGGTLLSRELHPVAPLLDNLTSALNKVYQRKGVNISLDISPEISFVGEQNDFVEVMGNVLDNACKYCLEFVEISARQTDEHLYIVVEDDGPGIPLSKREVIFDRGQRVDTLRPGQGVGLAVAREITEQYEGKIVAGESMLGGARMEVIFGRQHSAPKDE
# Variants of: B1
# Experiment: enrichment ratio after two sorts for PhoP signalling (ratio (wild type AVST 3.29)); higher = more functional
# Settings: with PhoP (E. coli)
row,Variant,enrichment ratio
1,DRGH,≤ 0.25
2,VDMQ,≤ 0.25
3,NYVI,≤ 0.25
4,NEAM,≤ 0.25
5,VMIW,≤ 0.25
6,KDPT,≤ 0.25
7,DKME,≤ 0.25
8,DQTD,≤ 0.25
9,PCER,≤ 0.25
10,WQSN,≤ 0.25
11,EIDH,≤ 0.25
12,DTAH,≤ 0.25
13,VKHS,≤ 0.25
14,LCND,≤ 0.25
15,NAIL,≤ 0.25
16,KQSE,≤ 0.25
17,HQDI,≤ 0.25
18,QFQH,≤ 0.25
19,PVSS,≤ 0.25
20,MPGI,1.54
21,FVRA,≤ 0.25
22,IRYL,≤ 0.25
23,FQME,≤ 0.25
24,MQLF,2.66
25,PNCL,≤ 0.25

row,Variant,enrichment ratio
1,MEFP,≤ 0.25
2,VHEM,≤ 0.25
3,PVMM,≤ 0.25
4,NYNW,≤ 0.25
5,EMSS,≤ 0.25
6,YKAF,≤ 0.25
7,GYDD,≤ 0.25
8,IDCD,≤ 0.25
9,EYID,≤ 0.25
10,EHGN,4.25
11,ERYV,≤ 0.25
12,VGWW,≤ 0.25
13,SQVW,≤ 0.25
14,TKWP,≤ 0.25
15,LEPT,≤ 0.25
16,ENIL,≤ 0.25
17,TTLP,≤ 0.25
18,EQRN,≤ 0.25
19,WSEH,≤ 0.25
20,HKGA,≤ 0.25
21,YDPM,≤ 0.25
22,AMHK,≤ 0.25
23,VVAP,≤ 0.25
24,NDKM,≤ 0.25
25,YNMY,≤ 0.25

row,Variant,enrichment ratio
1,FLCF,≤ 0.25
2,CSYS,≤ 0.25
3,PPAH,≤ 0.25
4,QNSA,≤ 0.25
5,IQND,≤ 0.25
6,SVRP,≤ 0.25
7,GDKK,≤ 0.25
8,NERR,≤ 0.25
9,VNYS,≤ 0.25
10,MVEK,≤ 0.25
11,FVAQ,≤ 0.25
12,LFIN,≤ 0.25
13,YVYK,≤ 0.25
14,DMMF,≤ 0.25
15,KFLD,≤ 0.25
16,TMIS,≤ 0.25
17,RPMA,≤ 0.25
18,FINL,≤ 0.25
19,AMTL,4.39
20,FCNK,≤ 0.25
21,YYML,≤ 0.25
22,YPLK,≤ 0.25
23,SSGD,≤ 0.25
24,HSEI,≤ 0.25
25,MPDN,≤ 0.25

row,Variant,enrichment ratio
1,FMHE,≤ 0.25
2,LIAK,≤ 0.25
3,KALH,≤ 0.25
4,LEIA,≤ 0.25
5,HATI,≤ 0.25
6,PMDK,≤ 0.25
7,KPPQ,≤ 0.25
8,SWDD,≤ 0.25
9,PTEI,≤ 0.25
10,SMRM,≤ 0.25
11,TMCQ,3.61
12,KSHD,≤ 0.25
13,MMPQ,≤ 0.25
14,PGEP,≤ 0.25
15,RCPA,≤ 0.25
16,PLGP,≤ 0.25
17,FLCK,≤ 0.25
18,WPSG,≤ 0.25
19,YYKA,≤ 0.25
20,KFLK,≤ 0.25
21,HAFY,≤ 0.25
22,NILP,≤ 0.25
23,TRLE,≤ 0.25
24,DQCG,≤ 0.25
25,NSKD,≤ 0.25

row,Variant,enrichment ratio
1,NFKW,≤ 0.25
2,ECNN,≤ 0.25
3,VLTV,≤ 0.25
4,VMKN,≤ 0.25
5,DAYM,≤ 0.25
6,ANHN,≤ 0.25
7,TGLC,10
8,MPKL,≤ 0.25
9,DIMV,≤ 0.25
10,HCSA,≤ 0.25
11,LSYI,8.98
12,ATMF,16
13,FVRE,≤ 0.25
14,IKWI,≤ 0.25
15,SIKL,≤ 0.25
16,KVLL,≤ 0.25
17,KCTL,≤ 0.25
18,FKRT,≤ 0.25
19,VERN,≤ 0.25
20,VKPA,≤ 0.25
21,VFWS,≤ 0.25
22,TAVT,≤ 0.25
23,YPDS,≤ 0.25
24,YQNA,14.6
25,SLMQ,11.8

row,Variant,enrichment ratio
1,GFRN,≤ 0.25
2,IKVA,≤ 0.25
3,NTTP,≤ 0.25
4,GLHY,≤ 0.25
5,TESL,12.5
6,AYFN,≤ 0.25
7,MSLL,13.3
8,HAWV,≤ 0.25
9,NYNG,≤ 0.25
10,HDCC,≤ 0.25
11,MINL,≤ 0.25
12,VNTI,≤ 0.25
13,KSHF,≤ 0.25
14,SKGF,≤ 0.25
15,WGKR,≤ 0.25
16,DIFT,≤ 0.25
17,ERPY,≤ 0.25
18,MIFH,9.75
19,TGPL,≤ 0.25
20,KEKA,≤ 0.25
21,TECA,0.528
22,NSKH,≤ 0.25
23,NGVS,≤ 0.25
24,IICF,0.792
25,QHPP,≤ 0.25

row,Variant,enrichment ratio
1,PLHI,≤ 0.25
2,FTKE,≤ 0.25
3,QDIP,0.586
4,GGTE,≤ 0.25
5,DLFR,≤ 0.25
6,RYIS,≤ 0.25
7,RICC,≤ 0.25
8,PSEE,≤ 0.25
9,EITS,≤ 0.25
10,NAIP,≤ 0.25
11,WDDW,≤ 0.25
12,HSWY,≤ 0.25
13,CMWF,≤ 0.25
14,SYVE,≤ 0.25
15,LFNE,≤ 0.25
16,SKLS,9.06
17,FTPD,≤ 0.25
18,TNCP,≤ 0.25
19,MRMC,≤ 0.25
20,TVLM,0.847
21,DPSF,≤ 0.25
22,TDPI,≤ 0.25
23,DSLQ,≤ 0.25
24,VVPM,≤ 0.25
25,TNMR,1.75

row,Variant,enrichment ratio
1,DFVE,≤ 0.25
2,HQTI,≤ 0.25
3,FWMQ,≤ 0.25
4,KRKR,≤ 0.25
5,EINH,≤ 0.25
6,HCSY,≤ 0.25
7,SKNE,≤ 0.25
8,ILMC,≤ 0.25
9,ANQP,≤ 0.25
10,GQKG,≤ 0.25
11,SCFA,0.377
12,KRGN,≤ 0.25
13,GNVF,≤ 0.25
14,IATT,≤ 0.25
15,YKYC,≤ 0.25
16,VLTT,≤ 0.25
17,KPFQ,≤ 0.25
18,PRQG,≤ 0.25
19,MCVP,≤ 0.25
20,STPQ,≤ 0.25
